In PubChem BioAssay AID488969 (Vanderbilt High Throughput Screening Facility, 2010):
Over roughly 110,000 compounds, “z-score” has its median near -0.1; the highest 2% begin near 2. Some of the results follow. Activity calls are given as the source filed them.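 The calls were made as follows: active = z-score in the third read window above 3 or below -3; inactive = the rest.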

These compounds were tested against Metabotropic glutamate receptor 8 (Rattus norvegicus) (UniProt P70579) (assay: rat mGluR8 modulators via GIRK flux, primary screen, cell-based, thallium flux, HTS (AID 488969)). Details: HEK293 rat mGluR8, GIRK (G protein-gated inwardly rectifying potassium channel) thallium flux, FluoZin2; at 10 µM; stronger effect = higher value; submaximal glutamate (EC20) added with thallium.
UniProt P70579, sequence (P70579 whole entry, looked up): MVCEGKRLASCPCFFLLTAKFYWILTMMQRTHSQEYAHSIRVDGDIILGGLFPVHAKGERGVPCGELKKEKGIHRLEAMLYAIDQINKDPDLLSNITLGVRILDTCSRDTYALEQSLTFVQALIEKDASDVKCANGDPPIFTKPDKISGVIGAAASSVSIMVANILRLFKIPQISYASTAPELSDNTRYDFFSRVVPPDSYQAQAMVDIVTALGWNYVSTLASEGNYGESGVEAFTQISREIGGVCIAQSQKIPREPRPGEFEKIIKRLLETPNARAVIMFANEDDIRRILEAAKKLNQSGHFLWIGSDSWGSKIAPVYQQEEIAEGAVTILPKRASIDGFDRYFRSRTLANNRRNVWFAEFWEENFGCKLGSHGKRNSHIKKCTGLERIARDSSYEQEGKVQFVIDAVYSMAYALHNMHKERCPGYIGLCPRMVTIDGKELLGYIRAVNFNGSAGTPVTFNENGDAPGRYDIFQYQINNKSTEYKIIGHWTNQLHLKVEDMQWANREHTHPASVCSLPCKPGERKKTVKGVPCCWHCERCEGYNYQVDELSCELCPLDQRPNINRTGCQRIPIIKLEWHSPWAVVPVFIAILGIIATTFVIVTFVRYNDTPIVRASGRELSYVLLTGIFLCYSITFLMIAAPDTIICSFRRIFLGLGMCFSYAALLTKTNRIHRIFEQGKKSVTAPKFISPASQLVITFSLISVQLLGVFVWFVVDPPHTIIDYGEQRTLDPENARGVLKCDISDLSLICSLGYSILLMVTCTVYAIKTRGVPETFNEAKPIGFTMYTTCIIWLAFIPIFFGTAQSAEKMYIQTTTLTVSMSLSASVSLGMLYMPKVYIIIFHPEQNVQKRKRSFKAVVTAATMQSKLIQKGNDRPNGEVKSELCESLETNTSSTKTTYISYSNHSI
CCCCn1nnnc1NCc1cccnc1 was tested, and the z-score was -0.231.
O=C(Nc1c(C(=O)Nc2ccccc2)cnn1-c1ccccc1)c1ccco1 gave a z-score of -0.00305.
Work on CCN(Cc1ccccc1)C(=O)C1CCN(CC2CC=CCC2)CC1 (stereo not drawn) yielded a z-score of -0.431.
CCn1c(SCc2ccc(Cl)c(Cl)c2)nnc1C(C)NC(=O)c1ccc(OC)cc1 (stereo not drawn) showed a z-score of -0.249.
With Cc1ccc(C(=O)/C=C/c2c(C)nn(-c3ccccc3)c2Cl)cc1 the z-score was -0.1.
Cc1cccc(NC(=S)Nc2ccc3cn[nH]c3c2)c1 showed a z-score of 0.1.
COc1ccc(C)cc1NCc1cc(=O)oc2cc(-c3ccccc3)c(O)cc12 gave a z-score of -0.102.
Work on CCOC(=O)N1CCN(C(=O)COc2ccc(S(=O)(=O)NCc3ccccc3)cc2)CC1 yielded a z-score of -0.288.
c1ccc(-c2csc3ncnc(-n4cnc5ccccc54)c23)cc1 showed a z-score of -0.602.
Work on COc1ccc(-c2noc(CN3C(=O)c4ccccc4C3=O)n2)cc1 yielded a z-score of -0.747.
With c1ccc(CCN2CN(CCCN3CCOCC3)c3nc4ccccc4n3C2)cc1 the z-score was -0.246.
In the case of CCc1cccc(CC)c1-n1c(SCc2cc(=O)n3ccsc3n2)nnc1-c1cccnc1, the z-score was -0.388.
CCCCCOC(=O)CC(C(=O)OCCCCC)N1CCCCC1 (stereo not drawn) showed a z-score of -0.0432.
In the case of CCS(=O)(=O)c1ccc(-c2csc(-c3ccccc3)n2)c(Cl)c1Cl, the z-score was 0.0564.
With Cc1cc(C)nc(SCc2nc(N)nc(-c3ccccc3O)n2)n1 the z-score was 0.373.
In the case of Cc1oc(-c2ccc(Cl)cc2)nc1CN1CCCC(C(=O)NCCCN2CCCC2=O)C1 (stereo not drawn), the z-score was -0.344.
For CCOC(=O)c1c(CSC(=N)N)n(-c2ccc(C)cc2)c2cc(Br)c(OC(C)=O)cc12, the z-score was 1.29.
Work on CN1CCc2nc(SCC(=O)Nc3ccc(OC(F)(F)F)cc3)c(C#N)c(-c3cccs3)c2C1 yielded a z-score of 0.0639.
In the case of Cc1c(NC(=O)c2cc3nc(-c4ccc(Br)cc4)cc(C(F)(F)F)n3n2)c(=O)n(-c2ccccc2)n1C, the z-score was -0.51.
In the case of O=C(Nc1ccc2ccccc2c1)/C(=C\c1ccc2c(c1)OCO2)NC(=O)c1ccco1, the z-score was -0.365.
In the case of Cc1ccc(C2Nc3ccccc3NC3=C2C(=O)OC(C)C3)cc1 (stereo not drawn), the z-score was -0.18.
Cc1ccccc1C(=O)N1CCN(c2ccc([N+](=O)[O-])c(NCc3cccnc3)c2)CC1 showed a z-score of -0.418.
C=CCC(NC(C)c1ccccc1)c1ccco1 (stereo not drawn) showed a z-score of 0.174.
Work on CCC(=O)N1CCN(c2ccccc2NC(=O)Cc2ccc(Cl)cc2)CC1 yielded a z-score of -1.15.
For Cc1ccc(C2=NN(C)c3nc4ccccc4n3C2)cc1, the z-score was -0.484.
Cc1ccc2c(N)c(C#N)sc2n1 was tested, and the z-score was 0.0283.
CC1(C)C(=O)OC(c2cccn2-c2cccc([N+](=O)[O-])c2)C2(CCCCC2)C1=O (stereo not drawn) gave a z-score of -0.339.
With COc1ccc(OC)c(-c2cc(C3CCN(c4cc(Cl)nc(N)n4)CC3)[nH]n2)c1 the z-score was -0.137.
Cc1ccsc1C(=O)Nc1ccc(C(=O)O)cc1 showed a z-score of -0.13.
O=C(CSc1ccccc1)N(c1ccc(Br)cc1)c1nccs1 was tested, and the z-score was active: 9.08.
O=C(NCCN1C(=O)C2C3C=CC(C3)C2C1=O)NCc1ccccc1 (stereo not drawn) was tested, and the z-score was -0.251.
In the case of Cc1ccc(S(=O)(=O)N2CCN(CC(=O)NC(=O)NCc3ccccc3)CC2)cc1C, the z-score was -0.184.
O=[N+]([O-])c1cc(C2Nc3cccc4cccc(c34)N2)ccc1Cl was tested, and the z-score was -0.278.
Work on Cc1csc(SCC(=O)NC(=O)NCc2ccccc2)n1 yielded a z-score of 0.0694.
In the case of N#Cc1cnn2c(-c3ccccc3)ccnc12, the z-score was -0.389.
In the case of Cc1cc(C(F)F)n2ncc(C(=O)N3CCC(C(N)=O)CC3)c2n1, the z-score was -0.0129.
Work on COc1ccc(OCCn2cc(/C=N/NC(=O)c3ccncc3)c3ccccc32)cc1 yielded a z-score of -0.353.
Work on Cc1ccc(NC(=O)CSc2nsc(SCC(=O)Nc3ccc(C)cc3C)c2C#N)c(C)c1 yielded a z-score of -0.432.
Compound CC(=O)OC1CSc2nc3ccccc3n2C1 (stereo not drawn) has a z-score of -0.132.
CCOc1ccc(OCC)c(NC(=O)C2CCCN(S(=O)(=O)c3c(C)noc3C)C2)c1 (stereo not drawn) gave a z-score of -0.458.
COC(Cc1n[nH]c(=S)n1-c1ccccc1)OC gave a z-score of 0.0393.
CCOCC(=O)Nc1cc(C(=O)OC)ccc1C(=O)OC gave a z-score of -0.075.
For Cc1csc(=NC(=O)c2ccccc2)n1C, the z-score was -0.359.
Work on COc1ccc(/C=C2\N=C(SC)N(C)C2=O)cc1 yielded a z-score of -0.0452.
COc1cc(C(=O)OCC(=O)NCc2ccccc2)cc(NC(=O)c2ccco2)c1OC showed a z-score of -0.957.
In the case of Cc1ccc(-n2c(SCC(=O)NCc3ccco3)nnc2-c2cccnc2)cc1, the z-score was -0.0721.
With N/C(CC(=O)NCCOc1ccccc1)=N\O the z-score was 0.691.
Work on COc1ccc(CNC(=O)C2CCNCC2)cc1 yielded a z-score of -0.0327.
Work on Cc1c(C)c2cc(Cl)c(O)c(CN3CCN(C)CC3)c2oc1=O yielded a z-score of 0.4.
Compound CCOC(=O)c1sc2nc3c(SCC(=O)O)cc(C(=O)c4cc(F)ccc4O)cn3c(=O)c2c1C has a z-score of -0.189.
Clc1c(CSc2nc3ccccc3o2)nc2ccccn12 gave a z-score of -0.743.
Compound CCOC(=O)COc1cccc2c(=O)n(CC(=O)N3CCCc4ccccc43)ccc12 has a z-score of -0.205.
Nc1nc2n(n1)C(c1c(F)cccc1Cl)CC(c1ccc(F)cc1)N2 (stereo not drawn) was tested, and the z-score was 1.07.
Compound CC(C)(C)C(=O)Nc1nnc(Cc2ccccc2)s1 has a z-score of -0.00414.
With COc1ccc(C2=C(C#N)C(=O)OC2)cc1 the z-score was -0.0847.
O=C(CSc1nc(O)c(C2CCCCC2)c(=O)[nH]1)NCC1CCCO1 (stereo not drawn) gave a z-score of -0.699.
O=C(Nc1ccccc1N1CCOCC1)C1CCN(S(=O)(=O)c2ccccc2F)CC1 gave a z-score of 0.223.
Compound Cc1ccc(C(=O)C2(C)C3c4cc(Br)ccc4OC(=O)C32C(=O)c2ccco2)cc1 (stereo not drawn) has a z-score of -0.961.
COC(=O)c1ccc2c(c1)N(C)C(=O)CS2 showed a z-score of 0.0398.
Work on COc1ccc(C(O)c2nccn2C)cc1 (stereo not drawn) yielded a z-score of 0.332.
COc1ccc(-c2[nH]ncc2-c2cnc(C)s2)c(O)c1 showed a z-score of 0.401.
In the case of CCOc1ccc(N(CC(N)=O)S(=O)(=O)c2ccc(F)cc2)cc1, the z-score was -0.0718.
CC(=O)c1ccc(NC(=O)c2ccn[nH]2)cc1 was tested, and the z-score was 0.38.
With CCCCNS(=O)(=O)c1ccc(S(=O)(=O)n2cnc3ccccc32)cc1 the z-score was -0.101.
Cc1ccc(C(=O)N/C(=C\c2ccc(-c3cccc([N+](=O)[O-])c3)o2)C(=O)NC(C)(C)C)cc1 was tested, and the z-score was -0.596.
C=CCNC(=O)/C(C#N)=C/c1ccccc1OCc1ccc(C(=O)OC)cc1 gave a z-score of -0.241.
With CC(C)OC(=O)C1C2C=CC3(CN(Cc4cccs4)C(=O)C13)O2 (stereo not drawn) the z-score was 0.0334.
In the case of Cc1ccc([N+](=O)[O-])cc1NC(=O)c1ccc(-c2ccccc2)cc1, the z-score was -0.0716.
With COc1ccc(Cn2c(=S)[nH]c3ccsc3c2=O)cc1 the z-score was active: 3.86.
CCOC1CS(=O)(=O)CC1OCC (stereo not drawn) showed a z-score of -0.134.
CSc1nc(-c2ccccc2)[nH]c(=S)c1C(C)=O was tested, and the z-score was active: 7.43.
CCCCNC(=S)NNC(=O)c1nn(C)c(C)c1Cl was tested, and the z-score was 0.549.
With Cc1cccc(NC(=O)/C(C#N)=C/c2cn(CC(=O)NCc3ccco3)c3ccccc23)c1C the z-score was -0.176.
Compound NC(=O)C1CCN(c2nc(-c3ccc(Br)cc3)cs2)CC1 has a z-score of -0.112.
With FC(F)(F)c1ccc(-n2ccnc2)nc1 the z-score was -0.0598.
In the case of Clc1ccc(OCCCN2CCCC2)cc1Cl, the z-score was 0.671.
Work on CCOC(=O)c1ccccc1NC(=O)Cc1ccccc1OC yielded a z-score of -0.663.
In the case of Nn1c(Cc2cccc3ccccc23)nnc1SCc1ccccc1, the z-score was -0.465.
CSc1ccccc1NC(=O)c1ccc(Cl)s1 gave a z-score of -0.184.
For O=C(c1ccc(C#CC2(O)CCCCC2)cc1)N1CCN(C(c2ccccc2)c2ccccc2)CC1, the z-score was 0.0718.
CCn1c(=O)c([N+](=O)[O-])c(NCCc2ccccc2)c2ccccc21 showed a z-score of -0.178.
Compound Cc1cnn(C(=O)c2oc3ccccc3c2C)c1 has a z-score of -0.239.
For CC(=O)c1cccc(NC(=O)Nc2ccc(C)cc2)c1, the z-score was 0.145.
In the case of CSC1=NCCN1C(=O)c1c(-c2ccccc2Cl)noc1C, the z-score was 0.0159.
Work on CCOC(=O)NC(O)C(=O)c1cccs1 (stereo not drawn) yielded a z-score of -0.035.
For O=C1CC(C(=O)O)S/C(=N\NC(=O)c2ccc(F)cc2)N1 (stereo not drawn), the z-score was -0.235.
O=C(Cn1c(=O)oc2ccccc21)NC(=O)NCc1ccco1 showed a z-score of 1.13.
COc1ccc2c(COC(=O)c3n[nH]c4ccccc34)cc(=O)oc2c1 showed a z-score of 3.37e-05.
For COc1cccc(NC(=O)CSc2nnc(CNC(=O)c3ccccc3)n2C)c1, the z-score was -0.299.
Cc1cc(=O)[nH]c(N=N/C(=N/Nc2ccc(O)cc2)c2ccccc2)n1 was tested, and the z-score was -0.0726.
COc1ccc(-c2c(C#N)c(SCc3c(C)noc3C)nc3c2C(=O)CC(C)(C)C3)cc1 showed a z-score of -0.229.
With O=C(CSc1ncn(-c2ccccc2)n1)Nc1nccs1 the z-score was -0.946.
C=CCn1c(COc2cccc3ccc(C)nc23)nnc1SCC(=O)OC was tested, and the z-score was -0.136.
For Cc1ncc([N+](=O)[O-])n1CC(=O)NC(C)(C)C, the z-score was -0.281.
Compound Cc1cc(C)n(-c2nc3nonc3nc2-n2nc(C)cc2C)n1 has a z-score of 0.084.
Cc1ccc(NC(=O)CCc2ccc(S(=O)(=O)NC3CCCCC3)cc2)cc1 showed a z-score of 0.245.
Compound C=CCN(CC=C)C(=O)c1ccccc1NC(=O)c1ccccc1C has a z-score of 0.278.
Compound COc1cccc(/C=N/NC(=O)CN2C(=O)NC3NC(=O)NC32)c1 (stereo not drawn) has a z-score of -0.188.
COc1cc(NC(=O)c2cnn3c(C)cc(C)nc23)c(OC)cc1Cl was tested, and the z-score was -0.00417.
In the case of O=C(CSc1nccn1-c1ccccc1)N1CCc2ccccc21, the z-score was -0.925.
In the case of CCOc1cc(NC(=O)c2cccs2)c(OCC)cc1NC(=O)c1ccco1, the z-score was -0.433.
Cc1ccc(C)c(SCC(=O)OCC(=O)c2ccco2)c1 showed a z-score of -0.124.
CCOC(=O)c1c(C)oc2ccc(O)c(CN(C)C)c12 gave a z-score of 0.911.
Compound COc1ccc(OC)c(N(CC(=O)Nc2ccc(NC(C)=O)cc2)S(C)(=O)=O)c1 has a z-score of 0.00569.
Compound COc1ccc(OC)c2[nH]c(=O)c(CCNC(=O)CC(C)C)cc12 has a z-score of 0.0956.
COc1ccc(N=Nc2[nH]c3ccc(C)cc3c2O)cc1 gave a z-score of -0.15.
In the case of O=C1C(Oc2ccccc2)C(c2ccc3c(c2)OCO3)N1CCc1ccc(F)cc1 (stereo not drawn), the z-score was -0.198.
Compound CCOC(=O)c1[nH]c(C)c(C(=O)Nc2ccc(C)c(Cl)c2)c1C has a z-score of -0.307.
For Cc1cc(C)cc(OCC(=O)Nc2ccc3c4c(cccc24)CC3)c1, the z-score was 0.316.
In the case of Cc1nc(SCC#N)c2c(C)c(C)sc2n1, the z-score was 0.0201.
Cc1ccccc1N1Cc2ccccc2C1 showed a z-score of -0.325.
Work on CCc1nc2ccccc2c(C(=O)O)c1C yielded a z-score of -0.239.
Compound CC(C)CO/C(=N/S(=O)(=O)c1ccccc1)c1ccccc1 has a z-score of -0.662.
